Experimental data reported in publication PMC4336329 (PLoS ONE, 2015).
The campaign covered roughly 310,000 compounds. About 14,000 (4.5%) showed an effect of 50% or more. Effects have a minus sign here. This is one part of the list.

molecular target: human ether-à-go-go-related gene (hERG) potassium channel (human, UniProt Q12809); assay: primary screen, population patch clamp on CHO cells stably expressing hERG
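Further: peak tail current of the secondary pulse compared with the same well before compound.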

Sequence of human ether-à-go-go-related gene (hERG) potassium channel (Q12809 whole entry, looked up): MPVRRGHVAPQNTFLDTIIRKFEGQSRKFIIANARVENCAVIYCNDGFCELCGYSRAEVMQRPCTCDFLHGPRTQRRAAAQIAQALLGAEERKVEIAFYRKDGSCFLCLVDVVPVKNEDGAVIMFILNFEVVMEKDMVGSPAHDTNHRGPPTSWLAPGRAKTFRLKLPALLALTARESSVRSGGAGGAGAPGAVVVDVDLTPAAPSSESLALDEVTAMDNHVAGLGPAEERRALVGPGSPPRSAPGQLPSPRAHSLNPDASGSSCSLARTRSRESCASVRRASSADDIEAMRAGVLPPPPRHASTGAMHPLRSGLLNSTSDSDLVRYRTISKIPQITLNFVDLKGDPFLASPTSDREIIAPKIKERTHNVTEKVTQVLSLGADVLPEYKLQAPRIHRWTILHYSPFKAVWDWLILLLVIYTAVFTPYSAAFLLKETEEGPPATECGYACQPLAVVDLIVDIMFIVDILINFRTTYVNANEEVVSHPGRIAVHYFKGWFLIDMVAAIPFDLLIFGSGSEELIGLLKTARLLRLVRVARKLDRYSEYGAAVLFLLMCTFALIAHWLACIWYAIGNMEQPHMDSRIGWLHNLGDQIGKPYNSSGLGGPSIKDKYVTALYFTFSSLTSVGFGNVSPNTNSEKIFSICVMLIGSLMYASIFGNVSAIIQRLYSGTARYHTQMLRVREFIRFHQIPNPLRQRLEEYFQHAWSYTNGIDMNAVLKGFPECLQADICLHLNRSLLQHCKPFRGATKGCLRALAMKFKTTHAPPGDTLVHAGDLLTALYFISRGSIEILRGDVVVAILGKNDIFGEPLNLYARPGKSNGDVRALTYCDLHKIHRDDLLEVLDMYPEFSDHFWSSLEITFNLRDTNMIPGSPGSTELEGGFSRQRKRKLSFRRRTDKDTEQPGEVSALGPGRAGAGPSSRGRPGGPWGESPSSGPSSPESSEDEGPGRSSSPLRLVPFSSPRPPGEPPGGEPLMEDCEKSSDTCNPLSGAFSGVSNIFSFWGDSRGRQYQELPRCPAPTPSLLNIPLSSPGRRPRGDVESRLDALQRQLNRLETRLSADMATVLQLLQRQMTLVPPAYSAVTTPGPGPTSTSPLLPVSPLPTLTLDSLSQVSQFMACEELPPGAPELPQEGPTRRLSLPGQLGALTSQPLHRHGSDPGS

| Structure (SMILES) | hERG current change (%, negative = inhibition) at 10uM [%] |
| --- | --- |
| CCOc1ccc(NC(=O)CC2CC(C)(C)OC2=O)cc1 (stereo not drawn) | -12.8 |
| C/C(=N/O)c1c(O)c(C)c(-c2ccccc2)n(-c2ccccc2)c1=O | 5.97 |
| O=C(C1COc2ccccc2O1)N1CCN(S(=O)(=O)c2cc(F)ccc2F)CC1 (stereo not drawn) | -27.9 |
| COc1cc(/C=N/N2CCN(c3ccccc3OC)CC2)ccc1O | -2.87 |
| CCCCCCn1c(=O)c(C(=O)Nc2ncccc2C)c(O)c2ccccc21 | -0.374 |
| Cc1ccc(CCN2C(=O)CCC2(C)C(=O)NC2CCCC2)cc1 (stereo not drawn) | 3.63 |
| CCOc1ccc(NC(=O)COC(=O)c2cc(S(=O)(=O)N3CCCC3)ccc2C)cc1 | -4.88 |
| Clc1ccc(-c2csc(N3CCc4ccccc4C3)n2)cc1 | 14.3 |
| COc1ccccc1N1C(=O)NC(=O)/C(=C\c2cnn(-c3ccccc3)c2)C1=O | 10.8 |
| CCCC(C)NC(=O)CSc1nc2ccc(C)cc2[nH]1 (stereo not drawn) | 9.81 |
| CCc1nnc(NC(=O)Cn2nnc(-c3ccccc3F)n2)s1 | 2.36 |
| COc1ccc(N2CCN(C(=S)NC(=O)c3cccs3)CC2)c([N+](=O)[O-])c1 | -47.8 |
| N#CC1=C(N)Nc2nc3ccccc3n2C1c1ccc(Cl)cc1 (stereo not drawn) | 2.87 |
| Cn1c(CNC(=O)Nc2ccccc2)nnc1SCc1ccccc1 | -12 |
| CCOc1ccc(NC(=O)CN(C)C(=O)Cc2c(C)nc3ccccc3c2C)cc1OCC | -47 |
| Cc1ccc(S(=O)(=O)N(CC2CO2)c2ccccc2[N+](=O)[O-])cc1 (stereo not drawn) | 13.1 |
| COc1ccc(-c2nnc(-c3cc4ccccc4oc3=O)o2)cc1 | 9.2 |
| CC(=O)[C@H]1CC[C@H]2[C@@H]3C=CC4=CC(=O)CC[C@@]4(C)[C@@H]3CC[C@]12C | -4.09 |
| CCc1cccc2c(C(=O)COC(=O)c3ccccc3)c[nH]c12 | 11.7 |
| O=C(c1cccc(OC2CCN(Cc3cc(F)cc(F)c3)CC2)c1)N1CCCC1 | -34.9 |
| Cn1c(SCC(=O)NCc2ccco2)nnc1-c1c[nH]c2ccccc12 | -5.53 |
| CC(=O)c1c(C)n(-c2ccccc2)c2ccc(O)cc12 | 23.2 |

| Structure (SMILES) | hERG current change (%, negative = inhibition) at 10uM [%] |
| --- | --- |
| CC1(C)CC(=O)C(C=NCCN2CCN(C(=O)Cc3ccc(F)cc3)CC2)=C(O)C1 | -23.5 |
| COc1ccc(CC(=O)NCc2csc(-c3cccs3)n2)cc1OC | 3.33 |
| COCCCNC(=O)CSC1=Nc2ccccc2C2=NC(CC(=O)NCc3ccccc3)C(=O)N12 (stereo not drawn) | 11.6 |
| CCOc1ccc(C(=O)CCN2CCCCCC2)cc1.Cl | -38.4 |
| COc1ccc(NC(=O)CN(C)CC(=O)Nc2ccc(C)c(S(=O)(=O)N3CCCCC3)c2)cc1 | -27.5 |
| COc1ccc(C(=O)N(C)Cc2cnn(Cc3ccccc3)c2)cc1S(=O)(=O)N1CCOCC1 | -27 |
| O=C(NCc1n[nH]c(=S)n1-c1ccc(Cl)c(Cl)c1)c1cccs1 | 18.1 |
| COc1ccc(OCCOc2ccc(C)nc2[N+](=O)[O-])cc1 | -1.9 |
| CC1CCN(C(=O)Cn2nc(C(F)(F)F)c3c2CCCC3)CC1 | -4.43 |
| Cc1cnc2cc(Cl)c(Cl)cc2n1 | 18.2 |
| COc1ccc(C(=O)Nc2nc(-c3cccs3)c(NC(C)=O)s2)cc1 | 13.1 |
| CC(C)c1ccc(N(CC(=O)NCc2ccco2)C(=O)CCC(=O)Nc2nccs2)cc1 | -10.5 |
| O=C(CC1C(=O)NCCN1CC(c1ccccc1)c1ccccc1)NCCc1cn[nH]c1 (stereo not drawn) | -0.649 |
| Cc1ccc(SCCNS(C)(=O)=O)cc1 | 2.86 |
| CCS(=O)(=O)c1ccc(O)c(NC(=O)COc2ccc(OC)cc2)c1 | 1.82 |
| O=C(c1ccco1)N1CCN(C(=O)c2cc3c(=O)oc4ccccc4c3s2)CC1 | -62.9 |
| Nc1nc2n(n1)C(c1cccc(Br)c1)CC(c1ccc(F)cc1)N2 (stereo not drawn) | -32.7 |
| CCc1ccccc1N1C(=O)/C(=C/c2ccc(N3CCN(C)CC3)o2)C(=O)NC1=S | 1.18 |
| O=C1CN(C(=S)NC(=O)c2ccc(-c3ccccc3)cc2)CCN1 | 4.57 |
| O=c1c2ccccc2sn1-c1ccc(S(=O)(=O)N2CCCCC2)cc1 | -0.622 |
| CC(=O)Nc1cccc(NC(=O)CSc2nnc(Cc3cccn3C)n2CCc2ccccc2)c1 | -14.9 |
| COc1ccccc1CNC(=O)Cn1cccc1 | 1.51 |

| Structure (SMILES) | hERG current change (%, negative = inhibition) at 10uM [%] |
| --- | --- |
| Fc1cccc(NC(=S)Nc2cccc3ccccc23)c1 | -21.3 |
| O=C(O)CCCCCCCCCCCNC(=O)NC12CC3CC(CC(C3)C1)C2 | 29.7 |
| Cl.OC(COCCC12CC3CC(CC(C3)C1)C2)CN1CCCC1 (stereo not drawn) | -30.3 |
| COc1ccc(-n2c(/C=C/c3cccc(F)c3)nc3ccccc3c2=O)c(OC)c1 | 17.9 |
| COCCOC(=O)c1c(N)n(Cc2ccccc2)c2nc3ccccc3nc12 | -36.5 |
| Cc1ccnc(NS(=O)(=O)c2ccc(-n3cccn3)cc2)c1 | 19.1 |
| COc1ccccc1C(=O)NC(=O)COC(=O)CN1C(=O)NC(C)(C)C1=O | 38.2 |
| NC(=O)C1CCN(CC(=O)Nc2cccc(C(=O)Nc3cccc(C(F)(F)F)c3)c2)CC1 | -20.9 |
| O=C(O)c1ccccc1S(=O)(=O)NCC(O)COC1CCCCC1 (stereo not drawn) | -2.65 |
| CCc1nc(NC2CCCCC2)c(C#N)c2c1COC(C)(C)C2 | -7.21 |
| O=C1c2cccnc2Oc2ccc(Cl)cc2N1Cc1ccc(F)cc1 | -12 |
| Cc1nn(-c2cc(N3CCOCC3)ccc2N)c(=O)c2ccccc12 | 0.574 |
| COc1cc2c(cc1OC)C(C)N(C(=O)Cn1ncc3c1-c1ccccc1OC3)CC2 (stereo not drawn) | -16.2 |
| CC(=O)Nc1ccc(S(=O)(=O)NC(=O)C23CC4CC(CC(C4)C2)C3)cc1 | 11.3 |
| CCCCC(=O)Nc1sc2c(c1C(N)=O)CCC2 | -8.36 |
| CC1CN(C(=O)CS(=O)(=O)Cc2ccccc2)CC(C)O1 (stereo not drawn) | 17.1 |
| CCOc1ccc(NC(=S)Nc2cc(OC)c(Cl)cc2OC)cc1 | 9.86 |
| Cc1c(C(=O)O)c(C(=O)O)c2n1CCS2 | 13.1 |
| Cc1ccc(SCCC(=O)N2CCOCC2)cc1 | -7.3 |
| C/C(CC(=O)Nc1ccc(Cl)cc1Cl)=N\NC(=O)c1ccco1 | -9.19 |
| O=C1CN(C(=O)c2ccc(F)c(S(=O)(=O)N3CCOCC3)c2)c2ccccc2N1 | 63.3 |
| Cc1nc(N2CCC(C(N)=O)CC2)c2c(-c3cccs3)csc2n1 | -0.812 |

| Structure (SMILES) | hERG current change (%, negative = inhibition) at 10uM [%] |
| --- | --- |
| CCC(=O)Nc1ccccc1N1CCN(S(C)(=O)=O)CC1 | 7.15 |
| Cc1nc2ccc(C(=O)N3CCN(c4ccccc4)CC3)cc2s1 | -6.64 |
| Cc1ccccc1-n1nnnc1SCC(=O)Nc1ccc(S(=O)(=O)N2CCCC2)cc1 | 18.8 |
| COC(=O)c1ccc(Cl)c(NC(=O)NC23CC4CC(CC(C4)C2)C3)c1 | 5.14 |
| Cc1ccc(S(=O)(=O)N2CCN(C(=O)c3ccc([N+](=O)[O-])cc3)C2)cc1 | -60 |
| COc1ccc(CN2CC[C@H]3C=CC[C@@H](C(=O)NCCc4ccccc4)[C@H]3C2=O)cc1OC | -4.84 |
| CCCC(=O)C1=C(O)C(C(=O)OC)C(C)(C)CC1=NCCc1ccccc1 (stereo not drawn) | -16.3 |
| COC(=O)CNC(c1ccccc1)c1cc(Cl)ccc1NC(=O)c1cccc(Cl)c1 (stereo not drawn) | -2.42 |
| COCCNC(=S)N1CCN(C(c2ccccc2)c2ccccc2)CC1 | -10.1 |
| Cc1cc(OCC(=O)NCc2ccncc2)c2c3c(c(=O)oc2c1)CCCC3 | -62.2 |
| CC1CN(c2ccc(Oc3ccccc3)cc2)c2nc3c(c(=O)n(CC(N)=O)c(=O)n3C)n2C1 (stereo not drawn) | -2.2 |
| CCNC(=S)N(CCO)Cc1cc2cc3c(cc2[nH]c1=O)OCO3 | 6.85 |
| CCCCC(CC)C(=O)Nc1ccc(C#N)cc1 (stereo not drawn) | -52.5 |
| COc1ccc(C2CC(c3c(O)n(CCc4ccccc4)c(=O)[nH]c3=O)=NN2)cc1OC (stereo not drawn) | -8.69 |
| O=C(O)CSc1nnc(-c2ccccc2O)n1Cc1ccccc1 | -3.45 |
| CC(C)[C@H](NC(=O)N1CC(=O)Nc2ccccc21)C(=O)N[C@H](Cc1ccccc1)C(=O)O | 6.01 |
| CSc1ccc(C(c2c(C)[nH][nH]c2=O)c2c(C)[nH][nH]c2=O)cc1 | 14.6 |
| CCn1c(SC)nc(O)c(C(c2ccc(OC)c(O)c2)c2c(O)nc(SC)n(CC)c2=O)c1=O | 10.6 |
| CSc1ccc(CNC(=O)C2CCC(=O)N(CCc3cccc(F)c3)C2)cc1 (stereo not drawn) | -77.1 |
| CCOC(=O)c1cc(-c2ccc(OC)cc2OC)nn1-c1ccc(C(=O)O)cc1 | 19.5 |
| CC(C)(NO)/C(=N\O)c1ccc(Cl)cc1.Cl | 4.54 |
